The campaign covered roughly 310,000 compounds. About 14,000 (4.5%) showed an effect of 50% or more. Effects have a minus sign here. Some of the results follow. Where a SMILES comes first, the peptide text is derived from it. The star is where a group is joined. PhAc = O=C(Cc1ccccc1)*; OBn = c1ccc(CO*)cc1
Target: human ether-à-go-go-related gene (hERG) potassium channel (human, UniProt Q12809)
Assay: primary screen, population patch clamp on CHO cells stably expressing hERG
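Also: peak tail current of the secondary pulse compared with the same well before compound.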

Chain of human ether-à-go-go-related gene (hERG) potassium channel (Q12809 whole entry, looked up): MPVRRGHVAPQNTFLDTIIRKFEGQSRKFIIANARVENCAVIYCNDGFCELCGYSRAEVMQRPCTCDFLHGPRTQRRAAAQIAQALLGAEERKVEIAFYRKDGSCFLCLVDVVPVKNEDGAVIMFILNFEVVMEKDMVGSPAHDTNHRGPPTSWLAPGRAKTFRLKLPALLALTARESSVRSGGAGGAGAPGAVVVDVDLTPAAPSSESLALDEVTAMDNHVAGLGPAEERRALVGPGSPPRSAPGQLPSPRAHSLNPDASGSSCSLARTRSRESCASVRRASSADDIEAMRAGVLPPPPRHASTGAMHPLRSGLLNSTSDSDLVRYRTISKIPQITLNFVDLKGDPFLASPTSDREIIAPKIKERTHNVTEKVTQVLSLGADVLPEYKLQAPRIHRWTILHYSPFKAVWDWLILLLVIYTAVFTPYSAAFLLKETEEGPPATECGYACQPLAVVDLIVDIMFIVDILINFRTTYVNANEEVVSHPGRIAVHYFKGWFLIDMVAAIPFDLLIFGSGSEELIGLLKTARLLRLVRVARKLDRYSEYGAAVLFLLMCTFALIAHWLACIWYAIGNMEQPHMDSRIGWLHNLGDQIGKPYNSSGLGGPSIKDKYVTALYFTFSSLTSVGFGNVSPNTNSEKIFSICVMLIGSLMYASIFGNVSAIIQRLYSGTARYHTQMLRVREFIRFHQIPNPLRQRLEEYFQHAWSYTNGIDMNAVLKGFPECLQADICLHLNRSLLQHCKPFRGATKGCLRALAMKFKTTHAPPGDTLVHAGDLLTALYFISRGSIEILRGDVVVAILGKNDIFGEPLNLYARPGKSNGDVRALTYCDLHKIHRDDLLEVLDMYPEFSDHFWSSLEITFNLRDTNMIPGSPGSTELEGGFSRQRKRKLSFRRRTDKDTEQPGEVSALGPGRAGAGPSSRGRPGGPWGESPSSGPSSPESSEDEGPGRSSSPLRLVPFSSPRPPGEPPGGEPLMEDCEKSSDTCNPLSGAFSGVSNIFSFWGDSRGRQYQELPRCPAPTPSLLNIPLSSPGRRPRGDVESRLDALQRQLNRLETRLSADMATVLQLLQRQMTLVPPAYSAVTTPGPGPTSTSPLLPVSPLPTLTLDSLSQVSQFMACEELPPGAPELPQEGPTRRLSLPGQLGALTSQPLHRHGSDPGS

| SMILES | hERG current change (%, negative = inhibition) at 10uM [%] |
| --- | --- |
| CC1=C(C(=O)Nc2cc(C)ccn2)C(c2ccc(C)cc2)C2=C(CCCC2=O)N1 (stereo not drawn) | -13.3 |
| CCc1cc2c(NC(Cc3ccccc3)C(=O)O)nc(C)nc2s1 (stereo not drawn) | 19.8 |
| CCCCn1nc(NC(=O)COC)c2cc3cc(OC)ccc3nc21 | -53.2 |
| COCCN(C)C(=O)CC1C(=O)NCCN1CC(c1ccccc1)c1ccccc1 (stereo not drawn) | 14.7 |
| O=C(N/C(C(=O)N1CCOCC1)=C(\Sc1ncccn1)c1ccccc1)c1ccccc1 | -9.45 |
| CN(C)c1ccc(/C=N/NC(=O)c2cc(-c3ccc4c(c3)OCO4)n[nH]2)cc1 | 0.899 |
| Cl.O=S(=O)(c1ccc(F)cc1)N1CCCNCC1 | -1.34 |
| O=C(Cc1ccc([N+](=O)[O-])cc1)Nc1cc(C(F)(F)F)cc(C(F)(F)F)c1 | 12.2 |
| CCOC(=O)Cc1csc(NC(=O)c2cccc(OC)c2)n1 | 1.15 |
| Nc1ccc(S(=O)(=O)NC2(C(F)(F)F)NC(=O)N(c3ccc(F)cc3)C2=O)cc1 (stereo not drawn) | 15.4 |
| O=C(N/N=C/c1ccccc1[N+](=O)[O-])C(=O)N1CCCC1 | 20.4 |
| Cc1ccc(-n2cc(CN3CCCN(C=O)CC3)c(-c3ccc(F)cc3)n2)cc1 | -18.7 |
| N#CCCN1C(=O)C2(OCCO2)c2ccccc21 | 17.9 |
| O=C(CNS(=O)(=O)c1ccc(Br)cc1)N1CCOCC1 | 10.1 |
| CN(C)CCCOc1ccc(Cl)cc1Br.O=C(O)C(=O)O | -69.3 |
| Cc1c(C)c2cc(Cl)c(OCC(=O)NCCCn3ccnc3)cc2oc1=O | -2.59 |
| Cc1cccc(N2CCN(c3nc4nonc4nc3N3CCSCC3)CC2)n1 | 6.12 |
| O=C1CC(c2ccc(Cl)c([N+](=O)[O-])c2)c2ccc3ccccc3c2N1 (stereo not drawn) | -20.7 |
| Cc1cc(C)nc(NCCCc2ccccc2)n1 | -10.7 |
| O=C(COC(=O)c1ccc(CO)cc1)Nc1ccc2ccccc2c1 | 5.23 |
| CCN(Cc1ccccc1)S(=O)(=O)c1ccc2oc(C(=O)O)c(C)c2c1 | 7.64 |
| O=C(CNC(=O)Cc1ccccc1)NCC(=O)OCc1ccccc1 (PhAc-Gly-Gly-OBn) | 12.4 |

| SMILES | hERG current change (%, negative = inhibition) at 10uM [%] |
| --- | --- |
| CCCOC(=O)c1c(N)sc(C(=O)OCC)c1C | 6.34 |
| Cc1ccc2nc(NC(=O)COC(=O)CSc3nc(C)cc(C)n3)sc2c1 | -9.44 |
| Cc1ccc(N2CC(=O)Nc3c(oc4nc(-c5ccccc5)cc(C)c34)C2=O)cc1 | 5.08 |
| O=C(CSC1=NC(=O)C(c2ccccc2)C(=O)N1)Nc1ccccc1[N+](=O)[O-] (stereo not drawn) | 28.3 |
| CCCc1cc(-c2[nH]ncc2-c2ccc3c(c2)OCCCO3)c(O)cc1O | -4.2 |
| COC(=O)c1ccc2c(c1)NC1=C(C(=O)CC(C)(C)C1)C(c1ccncc1)N2 (stereo not drawn) | -4.48 |
| Cc1ccc(CSc2nc3ncccc3[nH]2)cc1 | 9.2 |
| COc1ccc(CCN2C(=O)CC(N3CCN(S(=O)(=O)c4ccccc4)CC3)C2=O)cc1OC (stereo not drawn) | -5.73 |
| COCC(=O)NNC(=O)c1ccc(OC)cc1 | 12.7 |
| Cc1cc2cc(C)c3nnc(SCc4ccccn4)n3c2cc1C | -23.7 |
| O=C(Nc1cccnc1)c1cccc(S(=O)(=O)N2CCCC2)c1 | 8.58 |
| COc1cccc(OCc2nn3c(=O)c(-c4ccccc4)nnc3s2)c1 | 14 |
| O=C(NCc1ccccc1)Nc1cccn(Cc2c(F)cccc2Cl)c1=O | 22.5 |
| Cc1cc(C)n(-c2nc(Nc3ccccc3C(F)(F)F)nc(-n3nc(C)cc3C)n2)n1 | -15.2 |
| O=C(COc1ccc(Cl)cc1Br)Nc1nnc(C2CC2)s1 | 7.31 |
| CCn1c(SCc2nc3ccccc3[nH]2)nnc1-c1ccc(OC)cc1 | -1.72 |
| Cn1c(-c2csc(-c3cccc(C(F)(F)F)c3)n2)n[nH]c1=S | 19 |
| CNc1ccccc1C(C)(C)c1ccn[nH]1 | 11.7 |
| COC(=O)[C@@H]1[C@H]2C[C@H]3c4[nH]c5ccccc5c4CCN3C[C@@H]2CC[C@@H]1O | -57.5 |
| O=C(Nc1ccc(F)cc1Cl)c1ccc2c(=O)n3c(nc2c1)CCC3 | -19.3 |
| Cc1ccc(C(=O)N(Cc2cccnc2)Cc2cc3cc(C)ccc3n3nnnc23)cc1 | -23.8 |
| O=C(NCCc1cnccn1)C1CCC(=O)N(Cc2ccc(Cl)cc2)C1 (stereo not drawn) | 2.46 |

| SMILES | hERG current change (%, negative = inhibition) at 10uM [%] |
| --- | --- |
| CCn1cc(C(=O)Nc2ccccc2C(=O)OC)cn1 | 3.13 |
| O=[N+]([O-])c1ccc(N/N=C/c2cccc(O)c2O)c(S(=O)(=O)N2CCOCC2)c1 | -5.8 |
| Cc1cccc(C)c1NC(=O)C(c1ccc([N+](=O)[O-])cc1)N(C)C(=O)c1ccccn1 (stereo not drawn) | -27 |
| CCN(CC)CCN1C(=O)C(=O)/C(=C(/O)c2c(C)[nH]c(C(=O)OC)c2C)C1c1ccccc1 (stereo not drawn) | -5.47 |
| COc1cc(C(=O)OCC(=O)N2CCCCC2C)ccc1OCc1c(C)noc1C (stereo not drawn) | 6.3 |
| CC1Cc2ccccc2N1C(=O)CN1CCc2ccccc2C1 (stereo not drawn) | -24.6 |
| COc1cccc(NC(=O)C(Sc2nnc3ccccn23)c2ccccc2)c1 (stereo not drawn) | 6.68 |
| CC1(C)CC(=O)C(C=Nc2ccc3cn[nH]c3c2)=C(O)C1 | -40.5 |
| CCCc1[nH]nc2c1C(c1ccc(OC)cc1OC)C(C#N)=C(N)O2 (stereo not drawn) | -1.17 |
| Cc1nc(N)sc1Cc1ccc2c(c1)OCO2 | 7.61 |
| CCOc1cc(/C=N/O)ccc1OS(=O)(=O)c1ccc(C)cc1 | -5.21 |
| CCCCCCCNC(=O)CN1C(=O)CSc2ccc(S(=O)(=O)N3CCOCC3)cc21 | -17.7 |
| O=C(CC(=O)Nc1ccccc1)Nc1ccccc1 | 14.8 |
| CCOc1ccc(NS(=O)(=O)c2ccc(C(=O)NCCCN3CCOCC3)cc2)cc1 | 18.6 |
| Cc1ccc(Cl)cc1N1CCN(C(=O)Cc2ccc(-n3c(=O)[nH]c4ccsc4c3=O)cc2)CC1 | -4.4 |
| C/C(N)=C(/C#N)C(=O)COC(=O)c1cc(-c2cccc3ccccc23)nc2ccccc12 | 3.67 |
| Cc1ccc(C=Nc2ccccc2C(N)=O)cc1 | 12.1 |
| Cc1cccc(-c2oc3ccc(-c4ccc5c(c4)OCO5)cc3c2C#Cc2cncn2C)c1 | 20.4 |
| CCOC(=O)N1CCN(C(=S)NC(=O)c2ccc(Br)cc2)CC1 | -20.7 |
| CCC1(C(=O)c2ccc(C)cc2)C2c3ccccc3OC(=O)C21C(=O)O (stereo not drawn) | 39.9 |
| CCn1ncc(C(=O)Nc2ccc([N+](=O)[O-])cc2OC)c1C | 2.34 |
| O=C1CC(Sc2ncccn2)C(=O)N1c1ccccc1C(F)(F)F (stereo not drawn) | 10.1 |

| SMILES | hERG current change (%, negative = inhibition) at 10uM [%] |
| --- | --- |
| CCOCCCNC(=O)CNC(=S)N(Cc1ccc(C)cc1)Cc1ccco1 | -23 |
| O=C(NNc1ccccc1F)C1CCC1 | 14.5 |
| Cc1nc(=O)c(-c2ccccc2)c(C)n1-c1ccc(S(N)(=O)=O)cc1 | -15.8 |
| CN(C)CCCN(Cc1ccccc1)C(=S)Nc1ccc(SC(F)F)cc1 | -75.1 |
| COc1ccc(N2CCN(C(=O)C3Cc4ccccc4CN3C(=O)c3ccccc3)CC2)cc1 (stereo not drawn) | -21.4 |
| CCOC(=O)N1CCN(C(=O)c2ccc(OC)c(OC)c2)CC1 | 18.5 |
| O=C(c1cnccn1)N(c1ccccc1)C1(C(=O)NC2CCCCC2)CCCCC1 | 3.06 |
| COc1ccc(N2CCN(C(=O)CSc3nnc(NC(=O)C4CC4)s3)CC2)cc1 | 4.25 |
| CCCCCCC(=O)N1CCCC(c2nc(-c3cccc(OC)c3)no2)C1 (stereo not drawn) | -41.3 |
| CC(Cn1cncn1)C(=O)N1CCN(S(=O)(=O)c2ccc(Cl)cc2)CC1 (stereo not drawn) | 12.9 |
| O=C(NC1CCCCC1)C(c1ccncc1)N(C(=O)c1csnn1)c1ccccc1F (stereo not drawn) | -9.12 |
| COc1ccc(NS(=O)(=O)c2cn(C)cn2)cc1 | 11.9 |
| CSCC[C@H](NC(=O)N1CCn2c1nc1ccccc12)C(=O)NCc1ccco1 | -19.1 |
| CCN1CCN(c2ccc(N)cc2)CC1 | 46.4 |
| COc1ccc2c(c1)c(C(=O)N/N=C/c1cccc(Br)c1)c(C)n2C | -15.9 |
| CCC(CC)NC(=O)COc1ccc(OC)cc1C=O | 22.8 |
| CCc1ccc(NC(=O)Nn2cnnc2)cc1 | 23.7 |
| CC(=O)c1ccc(NC(=O)CCCN2C(=O)C(c3ccccc3)Oc3cccnc32)cc1 (stereo not drawn) | -30.7 |
| Cn1c(=O)[nH]c(=O)c2c1nc(Br)n2CCCO | 6.39 |
| O=C(/C=C/c1ccc(F)cc1)N1CCN(c2ncccn2)CC1 | 12.1 |
| CN1CCN(C(=S)c2cn(CCOc3ccccc3)c3ccccc23)CC1 | -11.6 |

Source: paper PMC4336329 (PLoS ONE, 2015)
